Test results taken from US20210221866A1, “PROTEASE-RESISTANT LIPIDATED GLP-1 ANALOGS” (MEDIMMUNE LIMITED, priority 2015, published 2021).
Like-named read-outs stand apart in the source and are kept apart here. Part of at least one peptide drawing is inferred or uncertain, most often the ends. Numbered stars: 1 amine (or outer) side, 2 acyl side, 3 side chain; on linkers, the order of the positions; unused ones are H or OH. Square brackets hold non-standard residues; d marks the D form. Side chains are listed from the residue outwards. Peptide text beside a SMILES is read from it. * marks the point of attachment. C16 diacid = O=C(O)CCCCCCCCCCCCCCC(=O)*; γGlu = O=C(O)[C@H](CCC(=O)[*:2])N[*:1]; αMeF = C[C@](N)(Cc1ccccc1)C(=O)O; αMeK = C[C@](N)(CCCCN)C(=O)O; αMeS = C[C@](N)(CO)C(=O)O; AEEA = NCCOCCOCC(=O)O; Aib = CC(C)(N)C(=O)O

Experiments:
Assay type in all cases: cell-based
[1] = biological target: T1, human glucagon receptor (GCGR) (Homo sapiens, UniProt P47871); assay: cAMP assay, human GCGR cells
T1 construct: expressed in transfected cells; host or cells: HEK293 cells or CHO cells
Experimental: (§1) Sample dilutions are made in duplicate.
(§2) A frozen cryo-vial of cells expressing the receptor of interest is thawed rapidly in a water-bath, transferred to pre-warmed assay buffer and spun at 240×g for 5 minutes. Cells are re-suspended in assay buffer at a batch-dependent optimized concentration (e.g. hGCGR cells at 2×10^5 cells/ml, hGLP-1R and hGIPR cells at 1×10^5 cells/ml).
(§3) To this, 5 μL cell suspension is added and the plates incubated at room temperature for 30 minutes.
(§4) cAMP levels are measured using a commercially available cAMP dynamic 2 HTRF kit (Cisbio, Cat #62AM4PEJ), following the two step protocol as per manufacturer's recommendations. In brief; anti-cAMP cryptate (donor fluorophore) and cAMP-d2 (acceptor fluorophore) are made up separately by diluting each 1/20 in conjugate & lysis buffer provided in the kit. 5 μL anti-cAMP cryptate is added to wells of the assay plate, and 5 μL cAMP-d2 is added to wells except non-specific binding (NSB) wells, to which conjugate and lysis buffer are added. […] EC50 values of the synthetic peptides determined in cAMP assays are then determined.
(§5) Data is transformed to % Delta F as described in the manufacturer's guidelines and analyzed by 4-parameter logistic fit to determine EC50 values. […] To compare the balance of activities at the GLP-1R and GCGR between different peptides and across different conditions, these can be correlated, where the EC50's are related to those of comparator peptides.

GLP-1R (INS1e cells) = biological target: T2, GLP-1R (INS1e cells) (Rattus norvegicus, UniProt P32301); assay: INS1e assay, cAMP activity at GLP-1R
T2 construct: endogenous in cells; host or cells: INS1e cells
T2 sequence (P32301 22-463): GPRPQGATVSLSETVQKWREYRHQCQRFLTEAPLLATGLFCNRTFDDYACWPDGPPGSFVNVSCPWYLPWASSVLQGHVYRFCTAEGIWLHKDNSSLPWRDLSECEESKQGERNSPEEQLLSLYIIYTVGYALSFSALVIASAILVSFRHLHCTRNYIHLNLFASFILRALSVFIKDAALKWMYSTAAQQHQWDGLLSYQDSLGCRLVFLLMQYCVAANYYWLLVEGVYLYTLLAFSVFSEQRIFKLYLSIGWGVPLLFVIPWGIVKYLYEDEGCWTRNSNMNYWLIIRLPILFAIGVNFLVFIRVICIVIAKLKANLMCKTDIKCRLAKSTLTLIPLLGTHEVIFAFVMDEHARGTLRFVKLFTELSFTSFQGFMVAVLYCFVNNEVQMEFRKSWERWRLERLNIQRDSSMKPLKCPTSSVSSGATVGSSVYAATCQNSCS

[2] = biological target: T3, human GLP-1 receptor (GLP-1R) (Homo sapiens, UniProt P43220); assay: cAMP assay, human GLP-1R cells
T3 construct: expressed in transfected cells; host or cells: HEK293 cells or CHO cells
Experimental: as §1, §2, §3, §4, §5

[3] = biological target: T4, human glucose-dependent insulinotropic peptide receptor (GIPR) (Homo sapiens, UniProt P48546); assay: cAMP assay, human GIPR cells; settings: Table 9, bis-lipidated peptides
T4 construct: expressed in transfected cells; host or cells: HEK293 cells or CHO cells
T4 sequence (P48546 22-466): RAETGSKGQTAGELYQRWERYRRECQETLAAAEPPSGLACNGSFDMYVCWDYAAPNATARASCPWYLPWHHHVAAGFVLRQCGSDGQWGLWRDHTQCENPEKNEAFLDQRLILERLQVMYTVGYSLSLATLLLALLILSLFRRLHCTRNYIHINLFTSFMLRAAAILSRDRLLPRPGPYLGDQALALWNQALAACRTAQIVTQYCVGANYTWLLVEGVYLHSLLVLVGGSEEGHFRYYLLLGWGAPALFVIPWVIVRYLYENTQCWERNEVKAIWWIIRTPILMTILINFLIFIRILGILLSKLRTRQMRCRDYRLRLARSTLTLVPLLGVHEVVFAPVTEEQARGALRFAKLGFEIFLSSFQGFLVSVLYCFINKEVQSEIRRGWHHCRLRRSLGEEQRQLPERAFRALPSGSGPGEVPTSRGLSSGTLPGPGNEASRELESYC
Experimental: as §1, §2, §3, §4, §5

[4] = Table 9, bis-lipidated peptides, first replicate, read-out: Primary assay EC50 Gluc-R (n1)
[5] = Table 9, bis-lipidated peptides, second replicate, read-out: Primary assay EC50 Gluc-R (n2)
[6] = first replicate, read-out: Primary assay EC50 GIP-R (n1)
[7] = second replicate, read-out: Primary assay EC50 GIP-R (n2)
[8] = Table 9, bis-lipidated peptides, mean of n1 and n2, read-out: Primary assay EC50 Mean pM GLP-1R
[9] = Table 9, bis-lipidated peptides, replicate n1, read-out: Primary assay EC50 GLP-1R n1
[10] = Table 9, bis-lipidated peptides, replicate n2, read-out: Primary assay EC50 GLP-1R n2

T1 sequence (P47871 26-477): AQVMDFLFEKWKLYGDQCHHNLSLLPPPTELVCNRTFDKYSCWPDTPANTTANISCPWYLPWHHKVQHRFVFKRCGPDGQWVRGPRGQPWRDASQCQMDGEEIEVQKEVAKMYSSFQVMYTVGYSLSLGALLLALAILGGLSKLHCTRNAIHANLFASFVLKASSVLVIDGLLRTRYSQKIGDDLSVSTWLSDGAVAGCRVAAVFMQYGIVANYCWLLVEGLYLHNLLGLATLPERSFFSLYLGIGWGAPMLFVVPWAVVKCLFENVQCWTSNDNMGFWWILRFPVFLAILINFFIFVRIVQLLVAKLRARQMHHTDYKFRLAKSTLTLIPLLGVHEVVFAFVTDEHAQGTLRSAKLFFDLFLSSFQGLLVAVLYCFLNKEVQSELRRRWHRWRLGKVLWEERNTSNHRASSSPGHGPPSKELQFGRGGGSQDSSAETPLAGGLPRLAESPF
T3 sequence (P43220 24-463): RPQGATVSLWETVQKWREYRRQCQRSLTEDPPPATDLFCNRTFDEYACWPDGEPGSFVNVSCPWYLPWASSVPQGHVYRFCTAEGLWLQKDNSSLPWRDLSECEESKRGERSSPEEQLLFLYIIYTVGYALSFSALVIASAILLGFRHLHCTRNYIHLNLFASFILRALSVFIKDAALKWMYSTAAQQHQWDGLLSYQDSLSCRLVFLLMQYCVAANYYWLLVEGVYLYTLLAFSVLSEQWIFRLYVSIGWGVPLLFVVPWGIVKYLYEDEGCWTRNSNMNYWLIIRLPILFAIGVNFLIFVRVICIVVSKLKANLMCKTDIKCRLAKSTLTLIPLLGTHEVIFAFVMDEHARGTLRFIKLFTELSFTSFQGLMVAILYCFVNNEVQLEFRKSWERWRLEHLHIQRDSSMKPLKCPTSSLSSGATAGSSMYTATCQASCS

Row | Compound | EC50 ([1]; cAMP activity, first determination (n1), read-out: Primary assay EC50 Gluc-R) [nM] | EC50 (GLP-1R (INS1e cells); Table 8, substituted and mono-lipidated peptides, mean of n1 and n2, read-out: INS1e assay EC50 Mean pM GLP-1R) [pM] | EC50 (GLP-1R (INS1e cells); Table 8, substituted and mono-lipidated peptides, replicate n1, read-out: INS1e assay EC50 GLP-1R n1) [pM] | EC50 (GLP-1R (INS1e cells); Table 8, substituted and mono-lipidated peptides, replicate n2, read-out: INS1e assay EC50 GLP-1R n2) [pM] | EC50 ([2]; cAMP activity, first determination (n1), read-out: Primary assay EC50 GLP-1R n1) [pM] | EC50 ([2]; cAMP activity, mean of n1 and n2, read-out: Mean pM GLP-1R) [pM] | EC50 ([2]; cAMP activity, second determination (n2), read-out: Primary assay EC50 GLP-1R n2) [pM] | EC50 [1, 4] [nM] | EC50 [1, 5] [nM] | EC50 (GLP-1R (INS1e cells); Table 10, bis-lipidated peptides, mean of n1 and n2, read-out: INS1e assay EC50 Mean pM GLP-1R) [pM] | EC50 (GLP-1R (INS1e cells); Table 10, bis-lipidated peptides, replicate n1, read-out: INS1e assay EC50 GLP-1R n1) [pM] | EC50 (GLP-1R (INS1e cells); Table 10, bis-lipidated peptides, replicate n2, read-out: INS1e assay EC50 GLP-1R n2) [pM] | EC50 [3, 6] [nM] | EC50 [3, 7] [nM] | EC50 [2, 8] [pM] | EC50 [2, 9] [pM] | EC50 [2, 10] [pM]
1 | CCCCCCCCCCCCCCCCCC(=O)NCCOCCOCC(=O)NCCOCCOCC(=O)NCCOCCOCC(=O)NCCCC[C@H](NC(=O)[C@H](C)NC(=O)[C@H](C)NC(=O)[C@H](CCC(=O)O)NC(=O)CNC(=O)[C@H](CCC(=O)O)NC(=O)[C@H](CC(C)C)NC(=O)[C@](C)(Cc1ccccc1)NC(=O)[C@H](CO)NC(=O)[C@](C)(CO)NC(=O)[C@@H](NC(=O)[C@H](CC(=O)O)NC(=O)[C@H](CO)NC(=O)[C@@H](NC(=O)[C@H](Cc1ccccc1)NC(=O)[C@H](CO)NC(=O)CNC(=O)[C@H](CCC(=O)O)NC(=O)C(C)(C)NC(=O)[C@@H](N)Cc1c[nH]cn1)[C@@H](C)O)C(C)C)C(=O)N[C@@H](CCC(=O)O)C(=O)N[C@@](C)(Cc1ccccc1)C(=O)N[C@H](C(=O)N[C@@H](C)C(=O)N[C@@](C)(Cc1ccccc1)C(=O)N[C@H](C(=O)N[C@H](C(=O)N[C@@](C)(CCCCN)C(=O)NCC(=O)NCC(N)=O)C(C)C)C(C)C)[C@@H](C)CC [compound 51] | ≥ 26 | 23 | 24.7 | 20.7 | 1.7 | 2.1 | 2.4 |  |  |  |  |  |  |  |  |  | 
2 | CC[C@H](C)[C@H](NC(=O)[C@H](Cc1ccccc1)NC(=O)[C@H](CCC(=O)O)NC(=O)[C@](C)(CCCCN)NC(=O)[C@H](C)NC(=O)[C@H](C)NC(=O)[C@H](CCC(=O)O)NC(=O)CNC(=O)[C@H](CCC(=O)O)NC(=O)[C@H](CC(C)C)NC(=O)[C@H](CCCCNC(=O)COCCOCCNC(=O)COCCOCCNC(=O)CC[C@H](NC(=O)CCCCCCCCCCCCCCC(=O)O)C(=O)O)NC(=O)[C@H](CO)NC(=O)[C@](C)(CO)NC(=O)[C@@H](NC(=O)[C@H](CC(=O)O)NC(=O)[C@H](CO)NC(=O)[C@@H](NC(=O)[C@](C)(Cc1ccccc1)NC(=O)[C@H](CO)NC(=O)CNC(=O)[C@H](CCC(=O)O)NC(=O)C(C)(C)NC(=O)[C@@H](N)Cc1c[nH]cn1)[C@@H](C)O)C(C)C)C(=O)N[C@@H](CCCCNC(=O)COCCOCCNC(=O)COCCOCCNC(=O)CC[C@H](NC(=O)CCCCCCCCCCCCCCC(=O)O)C(=O)O)C(=O)N[C@@H](Cc1c[nH]c2ccccc12)C(=O)N[C@H](C(=O)N[C@H](C(=O)N[C@@H](CCC(=O)O)C(=O)NCC(=O)NCC(N)=O)C(C)C)C(C)C [compound 265] (H-H[Aib]EGS[αMeF]TSDV[αMeS]SK([AEEA-AEEA-γGlu-C16 diacid])LEGEAA[αMeK]EFIK([AEEA-AEEA-γGlu-C16 diacid])WVVEGG-NH2; N-terminus assumed) |  |  |  |  |  |  |  | ≥ 21.6 | ≥ 21.6 | 8770 | 12200 | 5340 | ≥ 21.6 | ≥ 21.6 | 33.6 | 39.1 | 28
3 | CC[C@H](C)[C@H](NC(=O)[C@H](Cc1ccccc1)NC(=O)[C@H](CCC(=O)O)NC(=O)[C@](C)(CCCCN)NC(=O)[C@H](C)NC(=O)[C@H](C)NC(=O)[C@H](CCC(=O)O)NC(=O)CNC(=O)[C@H](CCC(=O)O)NC(=O)[C@H](CCCCNC(=O)COCCOCCNC(=O)COCCOCCNC(=O)CC[C@H](NC(=O)CCCCCCCCCCCCCCC(=O)O)C(=O)O)NC(=O)[C@H](Cc1ccc(O)cc1)NC(=O)[C@H](CO)NC(=O)[C@](C)(CO)NC(=O)[C@@H](NC(=O)[C@H](CC(=O)O)NC(=O)[C@H](CO)NC(=O)[C@@H](NC(=O)[C@](C)(Cc1ccccc1)NC(=O)[C@H](CO)NC(=O)CNC(=O)[C@H](CCC(=O)O)NC(=O)C(C)(C)NC(=O)[C@@H](N)Cc1c[nH]cn1)[C@@H](C)O)C(C)C)C(=O)N[C@@H](C)C(=O)N[C@@H](CCCCNC(=O)COCCOCCNC(=O)COCCOCCNC(=O)CC[C@H](NC(=O)CCCCCCCCCCCCCCC(=O)O)C(=O)O)C(=O)N[C@H](C(=O)N[C@H](C(=O)N[C@@H](CCC(=O)O)C(=O)NCC(=O)NCC(N)=O)C(C)C)C(C)C [compound 272] (H-H[Aib]EGS[αMeF]TSDV[αMeS]SYK([AEEA-AEEA-γGlu-C16 diacid])EGEAA[αMeK]EFIAK([AEEA-AEEA-γGlu-C16 diacid])VVEGG-NH2; N-terminus assumed) |  |  |  |  |  |  |  | ≥ 21.9 | ≥ 21.9 |  |  |  | ≥ 21.9 | ≥ 21.9 | 335 | 339 | 331
4 | CC[C@H](C)[C@H](NC(=O)[C@H](Cc1ccccc1)NC(=O)[C@H](CCC(=O)O)NC(=O)[C@](C)(CCCCN)NC(=O)[C@H](C)NC(=O)[C@H](C)NC(=O)[C@H](CCC(=O)O)NC(=O)CNC(=O)[C@H](CCC(=O)O)NC(=O)[C@H](CCCCNC(=O)COCCOCCNC(=O)COCCOCCNC(=O)CC[C@H](NC(=O)CCCCCCCCCCCCCCC(=O)O)C(=O)O)NC(=O)[C@H](Cc1ccc(O)cc1)NC(=O)[C@H](CO)NC(=O)[C@](C)(CO)NC(=O)[C@@H](NC(=O)[C@H](CC(=O)O)NC(=O)[C@H](CO)NC(=O)[C@@H](NC(=O)[C@](C)(Cc1ccccc1)NC(=O)[C@H](CO)NC(=O)CNC(=O)[C@H](CCC(=O)O)NC(=O)C(C)(C)NC(=O)[C@@H](N)Cc1c[nH]cn1)[C@@H](C)O)C(C)C)C(=O)N[C@@H](C)C(=O)N[C@@H](Cc1c[nH]c2ccccc12)C(=O)N[C@@H](CCCCNC(=O)COCCOCCNC(=O)COCCOCCNC(=O)CC[C@H](NC(=O)CCCCCCCCCCCCCCC(=O)O)C(=O)O)C(=O)N[C@H](C(=O)N[C@@H](CCC(=O)O)C(=O)NCC(=O)NCC(N)=O)C(C)C [compound 273] (H-H[Aib]EGS[αMeF]TSDV[αMeS]SYK([AEEA-AEEA-γGlu-C16 diacid])EGEAA[αMeK]EFIAWK([AEEA-AEEA-γGlu-C16 diacid])VEGG-NH2; N-terminus assumed) |  |  |  |  |  |  |  | ≥ 21.5 | ≥ 21.5 |  |  |  | ≥ 21.5 | ≥ 21.5 | 762 | 741 | 783
